# Hit rate of the full screen: of about 150,000 compounds, about 540 (0.36%) showed an effect of 50% or more. This is one part of the list.
# Tested on: Plasmodium falciparum
# Test: Primary screen in NF54 nanoGlo assay, in single point, at 2uM, 72h; a lower Z score goes with more inhibition
# Type: functional, Erythrocyte
# Conditions: timepoint 72 hour
SMILES,% Inhibition,Z score
COc1ccc(CCC(=O)N2CCCC[C@H]2c2nn(C)c3c2COCC3)cc1,-15%,1.47
O[C@]1(CN2CCCC2)COCCN(c2nc(-c3ccccc3)no2)C1,18%,-2.31
CCOc1ccc(C(=O)N2CC[C@@]3(C2)C(=O)Nc2ccccc23)cc1,-4%,0.66
CCCCc1noc([C@H](C)Nc2cccc(N3CCCC3=O)c2)n1,7%,-0.9
COc1ccc(CNC(=O)c2ccc(Oc3nccnc3N3CCOCC3)cc2)cc1OC,9%,-1.38
CC(C)(C)CC(=O)N1CCC2(CC1)OC[C@@H](C(=O)N1CCCC1)N2C(=O)c1ccc(F)cc1,-4%,0.49
Cc1ccc(Oc2cc(CNS(=O)(=O)N3CC(C)OC(C)C3)ccn2)cc1C (stereo unspecified),-2%,0.32
C1=CC[C@@H](CNc2cccc(Cn3cnnc3)c2)CC1,-4%,0.45
CCOc1ccc(CCNC(=O)c2ccc(-n3nnc4cccnc43)cc2)cc1OCC,-1%,0.1
CCC(=O)Nc1ccnc(C(C)(C)C)c1,-3%,0.37
COCCC(=O)N1CCN(C[C@H](O)COc2cccc3ccccc23)CC1,-8%,1.11
CCC1=N[C@@H](c2ccccc2Cl)N(O)C1(C)C,-2%,0.42
CCCNC(=O)NCCn1nc(-c2ccncc2)cc1C,-1%,0.17
Cn1cc(CCC(=O)N2CC[C@@](O)(c3ccccc3)[C@H]3CCCC[C@@H]32)cn1,-8%,0.89
COc1ccc(OC[C@@H](O)CN(C)C)c(CN2CCc3sccc3C2)c1,-7%,1.42
COc1cncc(C(Nc2cc(OC)nc(OC)n2)[C@H]2C[C@H](O)C2)c1 (stereo partly specified),-6%,0.61
CCN(CC)CCN(CC)C(=O)c1cnn(-c2nccc(-c3cccs3)n2)c1C,-6%,1.12
Cc1ccc2c(c1)c(C)c(C)n2C[C@H](O)CN1C(=O)CNC1=O,35%,-3.93
Cc1ccc(S(=O)(=O)N2CCC[C@H](Cn3cnc4cccnc43)C2)cc1,-14%,2.16
Cc1ccc2c(c1)C(NC(=O)NC1C3CCOC3C13CCC3)CO2 (stereo unspecified),-11%,1.42
O=C(CN1C=NS(=O)(=O)c2ccccc21)Nc1ccc(Cl)cc1,-11%,1.34
CC(C)n1ncnc1NC(=O)C[C@H]1CCOC1,-11%,1.41

SMILES,% Inhibition,Z score
NC(=O)CCN(Cc1ccccc1)Cc1cncn1C1CCCCC1,-5%,0.91
CCCN1CCN(CCNC(=O)c2cccc(Nc3ccnc(-c4ccc(C)cc4)n3)c2)CC1,-16%,1.45
CCn1cc(C)c(C(=O)O)c1CC(=O)N1CCN(c2ccccc2OC)CC1,-12%,1.53
Cc1ncsc1CCS(=O)(=O)N1CCC(n2ccnc2)CC1,-3%,0.56
O=C(CNS(=O)(=O)c1cccc(Br)c1)NCCCc1ccccc1,1%,-0.2
Cc1c2c(n(Cc3cccc(C(F)(F)F)c3)c1C(=O)NCc1cccc(C(F)(F)F)c1)CCCC2,4%,-0.52
O=C(NCC(=O)N1CCC[C@H]1CN1CCOCC1)c1cccc(Cl)c1,8%,-1.63
COc1ccccc1CCNC(=O)c1ccccc1N1CCC(NS(=O)(=O)c2ccc(F)cc2)CC1,11%,-1.5
CC[C@@H](C(=O)NC1CCN(C)CC1)N(c1ccc(F)cc1)S(C)(=O)=O,19%,-2.23
Cn1cc([C@H]2CC3(C)NC(=O)C2C(=O)N3)c2ccccc21,-5%,0.64
CC(C)(C)C1CNC(=O)C1C(=O)NCC1CCOCC1 (stereo unspecified),2%,-0.27
CCOC(=O)C1CCC(Nc2ccc3c(c2)N(C(N)=O)CCC3)CC1 (stereo unspecified),1%,-0.16
COCc1cc(CNC2C(C)C(OC)C2(C)C)ccc1F (stereo unspecified),-4%,0.47
Cc1cc(C(=O)NCC(C)(C)C[C@H](C)O)no1,-3%,0.43
C[C@@H]1CN(Cc2ccc(C#CCO)cc2)CC[C@]1(C)O,-26%,3.33
O=S(=O)(Nc1nc2n(n1)[C@H](c1ccc(Cl)cc1)C=C(c1ccccc1)N2)c1ccccc1,-7%,0.7
CCn1ccc(C(=O)NCCc2ncc(C)n2C2CCC2)n1,-8%,1.23
COc1ncccc1C(=O)N1CC(Nc2cccnn2)C1,2%,-0.37
Cc1noc(C)c1CO[C@H]1COCC[C@@H]1NC(=O)Cn1nc2ccccc2n1,-7%,0.68
Cc1ccc(C)c(S(=O)(=O)N2CCC(c3nc(C(=O)N4CCOCC4)c(C)o3)CC2)c1,-1%,0.22
CC1CCCCN1CCN1C(=O)c2ccc(-c3ccco3)n2CC1(C)C(=O)NC1CCCCCC1 (stereo unspecified),-7%,0.69
